In PubChem BioAssay AID2202238 (Ras Initiative Chemistry Research Team, Frederick National …, 2025):
The campaign covered roughly 2,200 compounds. Fewer than 10 were called active. Some of the results follow. Where no call is shown, the source marks the result inconclusive.

These compounds were tested against GTPase KRas (Homo sapiens) (UniProt P01116) (assay: Fragment capture on engineered cysteines, share of protein labelled (AID 2202238)). Details: KRAS G12D cysteine mutants, disulfide tethering, MALDI-TOF labeling; stronger effect = higher value; H27C mutant labeling; fragment at 500 µM.
Chain of UniProt P01116 (P01116 whole entry, looked up, the tested form may be a part): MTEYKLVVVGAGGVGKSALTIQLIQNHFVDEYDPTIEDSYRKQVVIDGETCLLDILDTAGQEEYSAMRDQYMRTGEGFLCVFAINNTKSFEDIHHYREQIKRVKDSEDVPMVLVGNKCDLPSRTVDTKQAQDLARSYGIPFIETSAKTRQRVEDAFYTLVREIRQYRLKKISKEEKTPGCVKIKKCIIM
Parameters: protein at 5 µM with 500 µM competing thiol for 1.5 h

| Structure (SMILES) | percent labeling [%] |
| --- | --- |
| O=C(NCCS)C1CN(C(c2ccccc2)c2ccccc2)C1 | 24 |
| O=C(NCC1CCCCN1C(=O)CCS)c1ccccc1 (stereo not drawn) | 37.3 |
| O=C(CCCc1ccc(F)c(F)c1)NCCS | 28.8 |
| O=C(CNC(=O)Cc1ccc(O)cc1)NCCS | 27.7 |
| Cc1csc2nc(CC(=O)NCCS)cn12 | 26.5 |
| O=C(NCCS)c1cc(Cc2ccccc2)[nH]n1 | 29.8 |
| O=C(CCS)Nc1ccccc1Oc1cccc(F)c1 | 29.2 |
| CC(C)(C)OC1CC(CC(=O)NCCS)C1(C)C (stereo not drawn) | 32.3 |
| O=C(CCc1nnc(C2CC2)n1-c1ccccc1)NCCS | 33.6 |
| COc1ccc(C(=O)NCCS)cc1-n1cnnn1 | 42.9 |
| O=C(NCCS)c1cccc(NC(=O)c2ccc(Br)cc2)c1 | 10.1 |
| O=C(CCS)N1CCC2(C=Cc3ccccc3O2)CC1 | 51.3 |
| CN1CCN(Cc2ccc(NC(=O)CCS)c(F)c2)CC1 | 58.6 |
| N#CCc1ccc(S(=O)(=O)N2CCC(C(=O)NCCS)CC2)cc1 | 27.6 |
| O=C(CCS)N1CCN(Cc2coc(-c3ccccc3)n2)CC1 | 38.7 |
| O=C(CCS)NCCNc1ncnc2sccc12 | 38.6 |
| O=C(NCCS)C1CCOC2(CCOCC2)C1 (stereo not drawn) | 28.9 |
| NC(=O)c1cc(O)ccc1NC(=O)CCS | 34.8 |
| Cc1cc(COc2ccc(C(=O)NCCS)cc2Br)no1 | 19.5 |
| CN(Cc1cnn(Cc2ccccc2)c1)C(=O)CCS | 37.8 |
| O=C(NCCS)c1nc2n(c1Cl)CCCC2 | 38.8 |
| Cn1nc(C2CCCN(C(=O)CCS)C2)nc1N (stereo not drawn) | 36.6 |
| O=C(CCS)N1CCSc2c([nH]c3ccccc23)C1 | 34.5 |
| O=C(CCS)N1CCN(c2cccs2)C(=O)C1 | 35.4 |

| Structure (SMILES) | percent labeling [%] |
| --- | --- |
| O=C(CCn1nc2ccccn2c1=O)NCCS | 21.9 |
| O=C(Cc1coc(-c2ccccc2)n1)NCCS | 24.8 |
| Cc1c(C(=O)NCCS)oc2ccc(Br)cc12 | 22.2 |
| O=C(CCS)NC1CC2(CCC2)Oc2ccc(Br)cc21 (stereo not drawn) | 30.9 |
| CCc1nc2ccc(Cl)cn2c1C(=O)NCCS | 44.3 |
| COc1c(C)cnc(CN(C)C(=O)CCS)c1C | 34.2 |
| CC(C)(C(=O)NCCS)c1cccc(C(F)(F)F)n1 | 36.3 |
| Cn1nc(-c2cccnc2)cc1C(=O)NCCS | 49.3 |
| Cc1oc(-c2cnn(C)c2)nc1C(=O)NCCS | 45 |
| O=C(CCNC(=O)c1cc(F)ccc1Br)NCCS | 40 |
| CC1(CNC(=O)CCS)OCCc2sccc21 (stereo not drawn) | 32.1 |
| Cn1nccc1C1=CC2CCC(C1)N2C(=O)CCS (stereo not drawn) | 38.2 |
| O=C(NCCS)C1CC(O)CN1c1ccncn1 (stereo not drawn) | 27.1 |
| O=C(NCCS)c1cc(Cl)nn1-c1ncccc1Cl | 44.3 |
| COC(=O)c1conc1C1CCN(C(=O)CCS)CC1 | 51.9 |
| CCN(CC)Cc1ccccc1CNC(=O)CCS | 49.1 |
| Cc1cccc(-c2ccc(C(=O)NCCS)n2C)c1 | 23.4 |
| CC(NC(=O)NCc1ccc(C(=O)NCCS)o1)c1cccs1 (stereo not drawn) | 17.7 |
| O=C(Cc1cc(Cl)c2c(c1)OCCCO2)NCCS | 41.2 |
| N#Cc1cc(NC(=O)CCS)ccc1OC(F)F | 41.9 |
| Cc1nc(C(=O)NCCS)c(-c2ccccc2)s1 | 28.7 |
| O=C(CC1CCC(C(F)(F)F)CC1)NCCS (stereo not drawn) | 28.1 |
| CC1(C)Cc2ccc(C(=O)NCCS)c(O)c2O1 | 23.6 |
| CN(Cc1nc2ccccc2[nH]1)C1CCN(C(=O)CCS)CC1 | 42.1 |

| Structure (SMILES) | percent labeling [%] |
| --- | --- |
| Cc1nc2ccccc2c(C)c1C(=O)NCCS | 40 |
| O=C(CCS)NCc1nnc2n1CCNC2=O | 18.1 |
| COc1cccc2c(=O)c(C)c(C(=O)NCCS)[nH]c12 | 41.4 |
| O=C(CCS)NCCn1nc2ccccn2c1=O | 24.1 |
| O=C(CCS)Nc1cn(Cc2ccccc2)nn1 | 38.6 |
| O=C(Cn1ncc2ccccc2c1=O)NCCS | 29.4 |
| O=C(CCS)NCCc1cccc(C(F)(F)F)n1 | 34.6 |
| CC(CC(=O)NCCS)Cc1ccc(Cl)cc1 (stereo not drawn) | 23 |
| O=C(CCS)NCCc1nc2ccc(F)cc2[nH]1 | 37 |
| O=C(CCS)Nc1cnc(N2CCOCC2)c(Br)c1 | 38.8 |
| COc1c(C(=O)NCCS)sc(Cl)c1Cl | 21.2 |
| O=C(CCS)Nc1ccn(CCOCCO)n1 | 28.2 |
| O=C(NCCS)C1C2C=CC(C2)C1c1ccccc1 (stereo not drawn) | 16.3 |
| O=C(NCCS)c1cc(Br)cn(C2CC2)c1=O | 36.8 |
| CC(C)(C)OC(=O)N1CCC12CCN(C(=O)CCS)CC2 | 37 |
| O=C(CC1COCCN1CC(F)(F)F)NCCS (stereo not drawn) | 25.8 |
| O=C(NCCS)c1ccc(-n2nccc2-c2ccc(F)cc2)cc1 | 31 |
| Cc1cc(C)n(-c2ccc(Cl)c(C(=O)NCCS)n2)n1 | 24.3 |
| Cc1ccc(C(O)(CC(=O)NCCS)C(F)(F)F)o1 (stereo not drawn) | 34.6 |
| O=C(NCCS)c1c[nH]cc(C(F)(F)F)c1=O | 35.5 |
| COc1c(F)c(F)cc2c(=O)c(C(=O)NCCS)cn(C3CC3)c12 | 18.5 |
| COc1ccc(CCN(C)C(=O)CCS)cc1OC | 39.8 |
| Cn1nccc1C1(O)CN(C(=O)CCS)C1 | 35.3 |
| O=C(Cc1scnc1-c1ccccc1)NCCS | 32.1 |

| Structure (SMILES) | percent labeling [%] |
| --- | --- |
| Cn1cc(-c2nc(C(=O)NCCS)cs2)cn1 | 50 |
| O=C(Cc1cscc1Br)NCCS | 39.8 |
| COc1ccc(-c2oc(C)cc2C(=O)NCCS)cc1 | 26.2 |
| O=C(CCS)N(CCO)Cc1cccnc1Cl | 35.8 |
| O=C(CCS)N1CCc2[nH]cc(Br)c(=O)c2C1 | 33.7 |
| O=C(Cc1ccccc1OC1CCOC1)NCCS (stereo not drawn) | 30.8 |
| O=C(CCS)NCc1ccc(N2CCCNC2=O)cc1 | 41 |
| Cc1nnc2ccc(C3CCN(C(=O)CCS)CC3)nn12 | 45 |
| O=C(CCc1ccnc2ccccc12)NCCS | 30.7 |
| O=C(CCS)N1CCC(O)(c2ccccc2)CC1 | 39.7 |
| CN(C)CCOc1ccccc1NC(=O)CCS | 48.5 |
| CC1CN(S(C)(=O)=O)C(C)CN1C(=O)CCS (stereo not drawn) | 45.3 |
| Cc1cccc(C)c1N1CCN(C(=O)CCS)CC1 | 19.1 |
| CCN(Cc1nc2ccsc2c(=O)[nH]1)C(=O)CCS | 38 |
| Cn1cc(C(=O)NCCS)c2nc(-c3ccccc3)ccc21 | 29 |
| CCOCc1nc(C)c(C(=O)NCCS)s1 | 41.6 |
| O=C(NCCS)c1ccc(OCc2ccccc2)cn1 | 22.3 |
| Cc1c(NC(=O)CCS)cnn1C1CCCC1 | 37.5 |
| O=C(CCS)NC1(CO)CC2(CCOCC2)C1 | 22.8 |
| O=C(CC1CCS(=O)(=O)C1)NCCS (stereo not drawn) | 28.7 |
| O=C(NCCS)C1CC(c2ccc(C(F)(F)F)cc2)C1 (stereo not drawn) | 21.2 |
| Cc1occ(C(F)(F)F)c1CC(=O)NCCS | 23.5 |
| O=C1CCCCC2(C(=O)NCCS)CCCN12 (stereo not drawn) | 31.6 |
| CN(Cc1cnn(-c2cccc(Cl)c2)c1)C(=O)CCS | 38.6 |

| Structure (SMILES) | percent labeling [%] |
| --- | --- |
| Cc1cc(CC2CCCC2NC(=O)CCS)n(C)n1 (stereo not drawn) | 37.7 |
| O=C(NCCS)c1cc(Br)c2occc2c1 | 35.8 |
| O=C(NCCS)c1ncsc1C(F)(F)F | 47.2 |
| COc1ccc(Cl)cc1C(=O)N1CCC(C(=O)NCCS)CC1 | 39.3 |
| Cc1ccc(-c2nc(C(=O)NCCS)cs2)o1 | 34.4 |
| Cc1ccc(Br)c2[nH]c(C(=O)NCCS)cc12 | 23.2 |
| O=C(NCCS)c1c[nH]c2ncc(Br)cc12 | 46.9 |
| O=C(CCc1ncc(-c2ccc(F)cc2)o1)NCCS | 22 |
| COc1cc(CN(C(=O)CCS)C2CC2)ccc1O | 43 |
| CC1(N2CCCC2)CCC(NC(=O)CCS)CC1 (stereo not drawn) | 47.1 |
| O=C(NCCS)c1cccc(NC(=O)C2Cc3ccccc3O2)c1 (stereo not drawn) | 15.4 |
| O=C(NCCS)c1cccc(N2CCOCC2=O)c1 | 40.7 |
| O=C(CCS)Nc1cccc(COc2ccc(F)cc2)c1 | 30.9 |
| CCN(CC(=O)NCCS)Cc1ccc(Cl)cc1 | 32.6 |
| O=C(CCS)N(Cc1ccc2c(c1)OCO2)C1CCCC1 | 36.5 |
| O=C(CCS)N1CCN(Cc2cc(=O)n3ccccc3n2)CC1 | 41 |
| CN1C(=O)C[C@@H](C(=O)NCCS)[C@@H]1c1ccc(F)cc1 | 39.8 |
| CN(C)c1nc[nH]c(=O)c1NC(=O)CCS | 30.4 |
| Cn1cc(C(O)C2CCN(C(=O)CCS)CC2)c(=O)n(C)c1=O (stereo not drawn) | 37.3 |
| Cc1nn(C)cc1CN(C(=O)CCS)C1CC1 | 34.2 |
| O=C(Cn1cccnc1=O)Nc1ccc(F)c(NC(=O)CCS)c1 | 28 |
| O=C(CCS)NCc1ccc(-n2ccc(C3CC3)n2)cc1 | 35.8 |
| Cc1ccc(-c2noc3nc(C)cc(C(=O)NCCS)c23)cc1 | 29.1 |
| CN(CC(=O)NCCS)Cc1cccc(C#N)c1 | 37 |

| Structure (SMILES) | percent labeling [%] |
| --- | --- |
| O=C(NCCS)c1ccccc1Cn1ccnn1 | 33 |
| CN(C(=O)CCS)C1CCN(CC(F)(F)F)CC1 | 39.5 |
| COc1cc2[nH]c(C(=O)NCCS)cc2c(OC)c1OC | 37.9 |
| Cn1nc(C(F)F)cc1CNC(=O)CCS | 33.7 |
| O=C(CC1(CC(=O)Nc2nccs2)CCCCC1)NCCS | 35.2 |
| Cc1cc(=O)oc2cc(NC(=O)CCS)ccc12 | 26.4 |
| O=C(NCCS)C1CCN(c2cnccn2)CC1 | 39.5 |
| O=C(CCn1nc(-c2cccs2)oc1=O)NCCS | 32.1 |
| Cn1cc(C2=CCCN(C(=O)CCS)C2)cn1 | 19.4 |
| O=C(CCS)Nc1nc(C2CC2)c(Cc2ccc(F)cc2)s1 | 20.9 |
| Cc1nc2ccccc2c(=O)n1-c1ccc(C(=O)NCCS)cc1 | 32 |
| O=C(Cc1cc2ccccc2c(=O)[nH]1)NCCS | 25.1 |
| CN1CCN(c2cccc(C(=O)NCCS)n2)CC1=O | 31 |
| Cn1nc(C(F)(F)F)c2cc(C(=O)NCCS)cnc21 | 43.3 |
| O=C(NCCS)C1COCCN1CC1CCC1 (stereo not drawn) | 31.9 |
| O=C(NCCS)c1cc(-c2ccc3ccccc3c2)n[nH]1 | 18.5 |
| Cc1ccc(C)c(CN(C(=O)CCS)c2ccc3c(c2)CCC(=O)N3)c1 | 31.7 |
| O=C(NCCS)c1cnn(-c2cccc(Cl)c2)n1 | 36.9 |
| CCCc1nc2ccccc2n1CCC(=O)NCCS | 34.3 |
| CC(C)c1cc(C(=O)NCCS)nn1-c1ccccc1 | 22.3 |
| O=C(NCCS)c1cccc(C(F)(F)F)c1 | 31.7 |
| O=C(CCS)N1CCC(Sc2cccc(Cl)c2)C1 (stereo not drawn) | 41.3 |
| O=C(NCCS)c1ccccc1-n1cc(Br)cn1 | 39.1 |
